According to the antibiotic and cytotoxicity screens of Wong et al. (2023):
Some of the results follow.

What was measured:
HSkMC = human skeletal muscle cells; assay: cytotoxicity call (relative viability < 0.9); conditions: 10 µM
HepG2 = assay: cytotoxicity call (relative viability < 0.9); conditions: 10 µM
S. aureus RN4220 = assay: growth inhibition call (relative growth <= 0.2); conditions: 50 µM

SMILES	cytotoxicity call (HSkMC)	cytotoxicity call (HepG2)	growth inhibition call (S. aureus RN4220)
Cc1noc(C)c1NC(=O)Nc1ccc2c(c1)C(=O)N([C@H](C)CO)C[C@H](C)[C@@H](CN(C)S(=O)(=O)c1ccccc1)OCCCC[C@H](C)O2	inactive	inactive	inactive
NCCSSCCN	inactive	inactive	inactive
C[C@H](CO)N1C[C@H](C)[C@@H](CN(C)CC2CC2)OCCCC[C@H](C)Oc2ccc(NC(=O)Nc3ccccc3)cc2C1=O	inactive	inactive	inactive
O=C1CNC(=O)N1[C@H]1CCNC1	inactive	inactive	inactive
C[C@@H]1CN([C@@H](C)CO)C(=O)c2cc(-c3ccc(C(=O)N(C)C)cc3)cnc2O[C@@H]1CN(C)C(=O)c1ccncc1	inactive	inactive	inactive
C[C@@H]1CCCCO[C@H](CN(C)Cc2ccc3c(c2)OCO3)[C@H](C)CN([C@@H](C)CO)C(=O)c2cc(NC(=O)Nc3cccc4ccccc34)ccc2O1	active	active	inactive
COc1ccc(NC(=O)Nc2ccc3c(c2)C(=O)N([C@H](C)CO)C[C@H](C)[C@@H](CN(C)Cc2ccc(-c4ccccc4)cc2)O3)cc1	inactive	inactive	inactive
Cc1noc(C)c1S(=O)(=O)Nc1cccc2c1O[C@@H](CN(C)C(=O)Nc1ccccc1)[C@@H](C)CN([C@@H](C)CO)C2=O	inactive	inactive	inactive
C[C@@H]1CCCCO[C@@H](CN(C)C(=O)Nc2ccc3c(c2)OCO3)[C@H](C)CN([C@H](C)CO)C(=O)c2cc(NC(=O)Nc3ccc4c(c3)OCO4)ccc2O1	inactive	inactive	inactive
C[C@@H]1CN([C@H](C)CO)C(=O)c2cc(NC(=O)Cc3ccccc3)ccc2O[C@@H](C)CCCCO[C@@H]1CN(C)S(=O)(=O)c1ccc(Cl)cc1	inactive	inactive	inactive
[O-][NH2+]N(O)c1ccccc1	inactive	inactive	inactive
Cc1noc(C)c1NC(=O)Nc1ccc2c(c1)C(=O)N([C@H](C)CO)C[C@H](C)[C@@H](CN(C)S(C)(=O)=O)O2	inactive	inactive	inactive
C[C@H](CO)N1C[C@H](C)[C@H](CN(C)Cc2ccc(C(F)(F)F)cc2)Oc2ccc(NC(=O)Cn3cnnn3)cc2CC1=O	inactive	inactive	inactive
CCCCCCCCCCCCCCCCCCCCCCCCC(=O)O	inactive	inactive	inactive
C[C@@H]1CN([C@H](C)CO)C(=O)c2cc(NS(=O)(=O)c3ccc(Cl)cc3)ccc2O[C@@H]1CN(C)Cc1ccc(-c2ccccc2)cc1	active	active	inactive
COc1ccccc1CNC(=O)C[C@H]1C[C@@H]2c3cc(NC(=O)c4cccnc4)ccc3O[C@@H]2[C@@H](CO)O1	inactive	inactive	inactive
COc1cc(Cl)ccc1Oc1ccc(Cl)cc1Cl	inactive	inactive	inactive
C[C@@H]1CN([C@H](C)CO)C(=O)c2cccc(NC(=O)Nc3cccc4ccccc34)c2O[C@@H]1CN(C)C(=O)Nc1ccc2c(c1)OCO2	inactive	inactive	inactive
Cc1cc2c(cc1S(N)(=O)=O)S(=O)(=O)CCC2	inactive	inactive	inactive
C[C@H]1CN([C@@H](C)CO)C(=O)Cc2cc(NC(=O)NC3CCCCC3)ccc2O[C@@H]1CN(C)Cc1ccc(C(=O)Nc2ccccc2N)cc1	inactive	inactive	inactive
C[C@@H](NC(=O)C[C@H]1CC[C@H](NC(=O)CN2CCOCC2)[C@H](CO)O1)c1ccccc1	inactive	inactive	inactive
CO[C@H]1CN(C)C(=O)c2cc(NC(=O)c3ccccc3)ccc2OC[C@@H](C)N(C(=O)CN(C)C)C[C@H]1C	inactive	inactive	inactive
C[C@@H]1CCCCO[C@@H](CN(C)C(=O)CCC(F)(F)F)[C@@H](C)CN([C@H](C)CO)C(=O)c2cc(NS(=O)(=O)c3ccccc3)ccc2O1	inactive	inactive	inactive
Cc1noc(C)c1NC(=O)N(C)C[C@H]1OCCCC[C@@H](C)Oc2ccc(NS(=O)(=O)c3ccc(F)cc3)cc2C(=O)N([C@@H](C)CO)C[C@@H]1C	inactive	inactive	inactive
Cc1ccc(S(=O)(=O)Nc2ccc3c(c2)C(=O)N([C@H](C)CO)C[C@@H](C)[C@@H](CN(C)C(=O)Nc2ccc(C(F)(F)F)cc2)O3)cc1	inactive	inactive	inactive
O=C(C[C@@H]1C[C@@H]2c3cc(NC(=O)Nc4ccc(C(F)(F)F)cc4)ccc3O[C@@H]2[C@@H](CO)O1)NCCc1ccccc1	inactive	inactive	inactive
